Data as given in the supplement of paper PMC10300432.

B1: C5216 (protein)
chain 1: QVQLVESGGGVVQPGRSLRLSCAASGFTFSDYGMHWVRQSPGKGLEWVAVIGDDGLYKWYADSVKGRFTISRDNSKNTLYLQMNGPRAEDTAIYFCARDWGSRVTYFDSWGQGTLVTVS
chain 2: DIQMTQSPSSLSASVGDRVTISCRASQSIGSYLSWYQQKPGKAPNLLIYDASNLQSGVPSRFSGSGSGTEFTLTVSSLQPEDFATYYCQQSYSTPPWTFGQGTKVEIK
B2: C5218 (protein)
chain 1: EVQLLESGGGVVQPGGSLRLSCPASGFTFSSFAMSWVRQAPGKGLEWVAAINGRGITTYYAASVYGRFTISRDNSKNTLFLQMTSLRAEDTAVYYCAKDDSSGYHNYFDYWGQGTLVTVSS
chain 2: DIQMTQSPSSLAASVGDRVTISCRASQSISTYLNWYQQKPGKAPKLLIYAASNLQSGVPSRFSASGSGTDFTLTISSLQPEDFATYYCQQGYNTPPLTFGGGTKVEIK
B3: C5235 (protein)
chain 1: EVQLVESGGGLIQPGGSLRISCAASGLLVSRNYMNWVRQAPGKGLEWVSILYPGGSAFYASSVKGRFTISRDDSNNTLFLQMNSLRAEDSAVYYCARDLSTVGGFDIWGQGTVLTVSS
chain 2: EIVLTQSPGTLSLSPGESATLSCRASQSVSSSYLAWYQQKPGQAPRLLIYAASRRATGIPDRFSGSGSGTDFTLIISRLEPEDFAVYYCQLYDNLYPFGQGTKLEIK
B4: C5236 (protein)
chain 1: EVQLVESGGGLVQPGGSLRLSCTGSGFLFSTYWMTWVRQAPGKGLEWVANIKQDGSEKYYVDSVKGRFIISRDNAKNSQYLQMNSLRAEDTGIYYCASALGVLWFGEPSQGTLVTVSS
chain 2: DIQMTQSPSSLSASVGDRVTITCRASQGISNSLAWYQQKPGKSPYLLIYSASTLESGVPSRFSGSGSGTDFSLTISSLQPEDFATYYCQQYYSIPITFGPGTKVDI
B5: C5045 (protein)
chain 1: QVQLVQSGAEVTKPGSSVKVSCKTSGGTLSNYAFNWVRQAPGLGLEWMGDIIPLSGTTHYAQKFQGRVTITADKSTRTVYMELSSLRSEDTAVYYCARDRGISMMVARELMVVWGQGTTVTVSS
chain 2: DIQMTQSPSTLSASVGDRVSITCRASQSINSWLAWYQQKPGKAPNLLIYDASSLESGVPSRFSGSGSGTEFTLTISSLQPDDFAIYYCQQYKDYPWTFGQGTKVEIK
B6: C5237 (protein)
chain 1: QVQLVESGGGVVQPGRSLRLSCAVSGFSLSRYGMHWVRQAPGKGLEWVAVTSYDGSNKYYADSVKGRFTISSDNSKNTLYLQMNSLRDEDTAVYYCAKKGGGPYCGGDCYAGYLDYWGQGTLVTVSS
chain 2: DIQLTQSPSSLSASVGDRVTITCRASQDISSALAWYQQRPGKAPKLLIYDASSLESGVPSRFSGSGSGTDFSLTISSLQPEDFASYYCQQFSSSPSITFGQGTRLEIK
B7: C5238 (protein)
chain 1: QVQLVQSGPEVKKPGASVKISCKTSGYIFNTYGISWVRQGPGQGLEWMGWISTSNGDTKYSQKVQGRVTMTTDTSTRTAYMELRSLRSDDTAVYYCARDLGVLWFGETDDWGQGTLVTVSS
chain 2: DIQMTQSPSSLSASVGDRVTITCRASQGISNSLAWYQQKPGKAPKLLLYSASTLESGVPSRFSGSGSGTDFTLTISSLQPEDFATYYCQQYYTTRTFGQGTKVEIK
B8: C5239 (protein)
chain 1: EVQLVQSGAEVKKPGESLKISCKASGYNFNSHYIGWVRQMPGKGLEWMGILYPGDSDTIYGPSFEGQVTISVDKSTTTAYLQWSRLKASDTATYYCARWTHTSGFYHFDYWGQGALVTVSS
chain 2: DIQMTQSPSSLSASVGDRVTLTCRASQSISMYLNWYQHKPGRAPKLLIYAASSLQSGVPSRFSGSGSGTDFTLTISNLQPEDFATYYCQQSYSTHLYTFGPGTKLEI
B9: C5240 (protein)
chain 1: QVQLQESGPGVVKPSETLSLTCFVSGVSGRSYSWNWIRQPPGKGLEWIGFIHYTGDSNYNPSLKSRVTISLDTSKNQFSLKVTSMTAADTAVYYCARGVRLAVAGTDPDYFDFWGQGALVTVSS
chain 2: SYELTQPPSVSVSPGQTARITCSGDALPNLYTFWYQQKPGQAPLLVIYKDNERPSGIPERFSGSTSGTTVTLTISGVQAEDEADYFCQSADSAGAVFGGGTKLTVL
B10: C5241 (protein)
chain 1: QVQLVQSGAEVKKPGSSVKVSCKASGGSFSSYTITWVRQAPGQGLEWMGRIIPILGIPYSAQRFVGRVTITADKSTGTAYMELSSLRSDDTAVYYCAREVGYSATSGAHWYFDLWGRGTLVTVSS
chain 2: QSVLTQPPSVSGAPGQRVTISCTGSNSNIGAGYDVHWYQQLPGTAPKLLIYANNNRPSGVPDRFSGSKSDTSASLAITGLRAEDEADYYCHSYDSSLSDSLFGGGTKLTVL
B11: C5242 (protein)
chain 1: QVQLQESGPGLVKPSETLSLTCNVSGGSISIFYWSWIRQSPGKGLEWIGYINANRRTDYNPSLKNRVTISVDTSKKQFSLQLSSVTTADTAVYYCARVFFDFPRGLGHDVFDIWGQGTKVTVSS
chain 2: EIVLTQSPATLSLSPGERATLSCRASQSVSSTFLAWYQQKPGLAPRLLIYDASSRATGIPDRFSGSGSGTDFTLTISRLEPEDFAVYFCQQYGNPPLTFGGGTKVEIK
B12: C5243 (protein)
chain 1: EVQLVETGGGLIQPGGSLRLSCAASGFTVSSDYMSWVRQAPGKGPEWVSVIYNDDRTQYADSVKGRFTISRNNSKNTVYLQLNSLRLDDTAVYYCTRGRGIQLDWGQGTLVTVSS
chain 2: DIQMTQSPSSLSASVGDRVTITCRASQGVSNSLAWYQQKPGRAPKLLLYAASTLESGVPSRFSGSGSGTDYTLTISSLQPEDFATYYCQQYYSALTWTFGQGTKVEIK
B13: C5244 (protein)
chain 1: QLQLQESGPGLVKPSETLSLTCSVSGDSISKNHYSWGWIRQPPGKGLEWIGNVFYSGNTYYNPSLKSRLTVSVDTSKNHFSLRLSSVTAADTAVYHCARQNPYYSDNSGYDFSDLKFDYWGQGILVTVSS
chain 2: QSVLTQPPSVSGAPGQRVTISCTGSSSNIGAGYNVHWYQQLPGTVPKLLIFDNTNRPSGVPDRFSGSRSGTSASLAITGLQAEDEGDYYCQSYDSSLSGPNYVFGTGTKLTVL
B14: C5245 (protein)
chain 1: QVQLVQSGAEVRKPGSSVKLSCKVTGGPFDSFSISWVRQAPGQGLEWMGRIFPILRVAHYAQNFEGRLTITAERSTNTAYMEISSLRSDDTAVFYCVRDRAGDGYNSRSFDPWGQGTLVTVSS
chain 2: QSVLTQPPSVSGAPGQRVTISCTGTNSNIGAGYAVHWYQQLPGSAPKLLIYGNNNRPSGVPDRFSASKSDTSASLAITGLQAEDEADYYCQSYDSSLGGSEVFGGGSKLTVL
B15: C5246 (protein)
chain 1: QLQLQESGPGLVKPSETLSLTCTVSGGSISRTPYYWGWIRQSPGKGLEWIGSIDYSGSTYYNPSLESRVTLSVDTSKNHFSLILRSVTAADTAVYYCARQEMGTTLENWYFDLWGRGTLVTVSS
chain 2: DIQMTQSPSSLSASVGDRVTVTCRASHAIANSLAWYQQKLGKAPKLLLHAASELESGVPSRFSGSGSGTTYTLTISSLQPEDSATYYCQQYYATPPTFGQGTKVEIK

What follows are binders tested against SARS-CoV-2 Omicron BA.1 spike pseudovirus (assay: pseudovirus neutralization IC50; higher = weaker neutralization).
Experimental: (§1)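 Single-round luciferase reporter pseudovirus mixed with antibody dilutions and put on HT1080-ACE2 clone 14 cells for 48 h; signal relative to no-antibody wells, four-parameter fit.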

Binder | pseudovirus neutralization IC50 [ng/mL]
B1 | 760
B2 | > 1000
B3 | 2.63
B4 | 678
B5 | 82
B6 | 907
B7 | 14.1
B8 | 780
B9 | > 1000
B10 | 12.3
B11 | 2.81
B12 | > 1000
B13 | 23.1
B14 | 17.6
B15 | > 1000

What follows are binders tested against SARS-CoV-2 Omicron BA.4/5 spike pseudovirus in the same assay as above.
Experimental: as §1

Binder | pseudovirus neutralization IC50 [ng/mL]
B1 | > 1000
B2 | > 1000
B3 | 1.84
B4 | 358
B5 | > 1000
B6 | > 1000
B7 | > 1000
B8 | > 1000
B9 | > 1000
B10 | > 1000
B11 | > 1000
B12 | > 1000
B13 | > 1000
B14 | > 1000
B15 | > 1000

Each binder was assayed against SARS-CoV-2 Wuhan-Hu-1 spike pseudovirus in the same assay as above.
Experimental: as §1

Binder | pseudovirus neutralization IC50 [ng/mL]
B1 | 92.1
B2 | 1.22
B3 | 1.19
B4 | 2.36
B5 | 0.918
B6 | > 1000
B7 | 3.12
B8 | > 1000
B9 | 285
B10 | 72.7
B11 | 1.16
B12 | 3.46
B13 | 5.8
B14 | 62.8
B15 | 390

The binders below were run against SARS-CoV-2 Wuhan-Hu-1 spike receptor-binding domain (assay: ELISA binding EC50; higher = weaker binding; ELISA of recombinant human antibody on coated antigen, from 10 µg/ml in fourfold dilutions; four-parameter fit.).

Binder | ELISA binding EC50 [ng/mL]
B1 | 2.69
B2 | 2.4
B3 | 1.92
B4 | 2.81
B5 | 4.14
B6 | 3.85
B7 | 4.84
B8 | 5.73
B9 | 5.84
B10 | 7.84
B11 | 4.2
B12 | 4.8
B13 | 5.93
B14 | 1.51
B15 | 5.1

Recombinant human monoclonal antibodies (heavy:light variable regions). ELISA EC50 on the named antigen, from 10 µg/ml down; IC50 against spike pseudovirus on HT1080-ACE2 cells, 48 h; lower = stronger. Calls: IC50 above 1,000 ng/ml = non-neutralizing; EC50 above 1,000 ng/ml = non-binder.
